PubChem BioAssay AID2100 (National Center for Advancing Translational Sciences (NCATS), 2009)
Where “and” joins values, the source holds several entries; their conditions need not be identical. Identical values can stand only once. About 1,200 (0.4%) of roughly 300,000 compounds were called active. Inconclusive means that the source gave no clear call. Such entries were picked first, then a sample of the others. Calls follow the shape of the dose curve; as a rule, active = well fitted inhibition curve with a large enough effect; inconclusive = small, poorly fitted or top-dose-only effect, or another doubt; inactive = no such curve, though single readings can be large or run the other way. Potencies of inconclusive entries are doubtful fits and often do not repeat.

These compounds were tested against Lysosomal alpha-glucosidase (Homo sapiens) (UniProt P10253) (assay: qHTS Assay for Inhibitors and Activators of Human alpha-Glucosidase Cleavage of Glycogen). Settings: recombinant GAA, glycogen substrate, Amplex Red glucose oxidase fluorescence; activity change, negative = inhibition: at 76.4 µM (top of the series) unless noted.
How it was run: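 Recombinant enzyme (4 nM final) with compounds titrated up to 77 uM and bovine liver glycogen (30 ug) in citrate pH 5.0, 0.01% Tween-20, 37 C 40 min. Released glucose detected by Amplex Red/glucose oxidase (Ex 573/Em 610); AC50 from Hill fits.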
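For activity change, negative = inhibition in this document: 0% = full enzyme reaction and -100% = no-enzyme basal signal.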
Potency is read from the fitted curve at half-maximal effect.

Structure (SMILES)	Potency	activity change, negative = inhibition
CC(=O)c1ccc(N2CCN(S(=O)(=O)c3ccc4c(c3)CC(=O)N4C)CC2)cc1	inconclusive: 73.3 µM [inhibitor, partial curve, poor fit]	
O=C(c1ccc(=O)oc1)N1CCCc2ccccc21	inconclusive: 15.7 µM [inhibitor, partial curve]	
COc1cc(CNc2ccc3[nH]c(=O)[nH]c3c2)cc(Br)c1OCC(=O)NC(C)(C)C	active: 14.1 µM	
N#CC1=C(SCc2ccccc2)NC(=O)C(C#N)C12CCCC2 (stereo not drawn)	inconclusive: 39.8 µM [inhibitor, partial curve]	
COC(=O)c1ccc(NC(=O)Cc2coc3cc(C)ccc23)cc1	inactive	
CC(=O)c1ccc(N2CCN(S(=O)(=O)c3ccc4c(c3)CC(=O)N4)CC2)cc1	active: 328 nM and active: 671 nM and active: 519 nM	
CCC(=O)NNc1nc2c(F)cccc2s1	inconclusive: 11.2 µM [inhibitor, partial curve]	
CCCCNC(=S)NNC(=O)c1sccc1C	inconclusive: 14 µM [inhibitor, partial curve]	
O=C(COc1ccccc1[N+](=O)[O-])NNC(=O)Nc1cccc2ccccc12	inconclusive: 6.31 µM [inhibitor, partial curve]	
COc1cc(OC)c(Cl)cc1N	inconclusive: 28.2 µM [inhibitor, partial curve]	
O=[N+]([O-])c1ccc(N/N=C/c2c[nH]c3ccccc23)cc1	active: 17.8 µM	
COc1cc2c(cc1OC)CN(C(=S)Nc1ccccc1)CC2	inconclusive: 3.14 µM [inhibitor, single point]	
Cc1ccc(N=Cc2sc(O)c3ccccc23)cc1	inconclusive: 39.8 µM [inhibitor, single point]	
COc1ccc(C(C#N)=C2C=CC(=NO)C=C2)cc1	inconclusive: 50.1 µM [inhibitor, single point]	
Cn1c(=O)cc(SCC(=O)Nc2cccc(C#N)c2)c2ccc(Cl)cc21	inactive	
Cc1oc2c(O)c(O)ccc2c(=O)c1-c1ccccc1	active: 8.84 µM	
COc1ccc(/C=C/c2nc(C#N)c(NC3CCCCC3)o2)cc1OC	inconclusive: 35.5 µM [inhibitor, single point]	
Cc1cccc(C)c1N1C(=O)CC(N(O)c2ccccc2)C1=O (stereo not drawn)	active: 31.6 µM	
COc1cc(C(C[N+](=O)[O-])c2c(N)n(C)c(=O)n(C)c2=O)ccc1O (stereo not drawn)	inconclusive: 25.1 µM [inhibitor, partial curve]	
CCc1cccc(C)c1Nc1c(-c2cccc(O)c2)nc2cnccn12	inconclusive: 5.01 µM [inhibitor, full curve]	
CCCCN=C(NNc1ccc(Br)cc1)C(=O)OCC	inconclusive: 22.4 µM [inhibitor, partial curve]	
Cc1csc(=S)n1-c1ccccc1	inactive	
COc1cccc(C(C[N+](=O)[O-])c2c(C)[nH]n(-c3ccccc3)c2=O)c1 (stereo not drawn)	inconclusive: 50.1 µM [inhibitor, single point]	
Cc1ccc(/C=N/Nc2nc3ccccc3[nH]2)s1	active: 28.2 µM	
COc1ccc(OC(C)c2nc3ccccc3[nH]2)cc1 (stereo not drawn)	inactive	

Structure (SMILES)	Potency	activity change, negative = inhibition
CC(=O)c1sc(N/N=C/c2ccc(C(C)C)cc2)nc1C	inconclusive: 7.94 µM [inhibitor, partial curve]	
CC1=NN(c2ccccc2)C(=O)C1	inconclusive: 39.5 µM [inhibitor, single point]	
Cn1cccc1/C=C1\CCc2ccccc2C1=O	inactive	
Cc1ccc(-n2c(CNc3ccc(C)c(Cl)c3)n[nH]c2=S)cc1	inconclusive: 19.8 µM [inhibitor, partial curve]	
COc1ccccc1-c1ccnc2[nH]n(-c3ccccc3)c(=O)c12	inconclusive: 17.8 µM [inhibitor, partial curve]	
CC(C)CCNC(=O)CC1Nc2c3ccccc3nc(=S)n2C1=O (stereo not drawn)	inconclusive: 28 µM [inhibitor, partial curve]	
COc1cc(C2NC(=O)N(C)C(C)=C2C(=O)OCc2ccccc2)cc(Br)c1O (stereo not drawn)	inconclusive: 10 µM [inhibitor, full curve]	
Cn1c(N)c(C(=O)CSc2nc3ccccc3c(=O)n2CCCN2CCOCC2)c(=O)n(C)c1=O	inactive	
COc1ccc(C2NC(=O)c3c(sc4c3CCN(C)C4)N2)cc1O (stereo not drawn)	inconclusive: 17.8 µM [inhibitor, partial curve]	
CC(=O)N1c2ccccc2C2(O)N=C(C)SC12 (stereo not drawn)	inconclusive: 22.4 µM [inhibitor, partial curve]	
CCOC(=O)C1=C(c2ccccc2)NC(=O)NC1c1cc(Cl)c(O)c(OC)c1 (stereo not drawn)	inactive	
Oc1ccccc1N1CCN(c2ncnc3sc(-c4ccccc4)cc23)CC1	inconclusive: 35.5 µM [inhibitor, partial curve]	
NNc1nc2ccccc2nc1C(F)(F)F	inactive	
COc1ccc(-c2cc(-c3n[nH]c(=S)n3-c3ccccc3Cl)[nH]n2)cc1	inconclusive: 8.91 µM [inhibitor, full curve, poor fit]	
COc1cc(C2C(C#N)=C(N)N(N(C)C)C3=C2C(=O)CCC3)cc(OC)c1OC (stereo not drawn)	inconclusive: 19.8 µM [inhibitor, single point]	
CCOC(=O)/C(=N/Nc1ccccc1)c1csc(Nc2ccccc2)n1	inconclusive: 22.4 µM [inhibitor, single point]	
CC1=Nc2cccc3cccc(c23)N1	active: 14 µM	
CC1(C)CC(=O)C/C(=N\NC(=O)C2CC23CCC3)C1 (stereo not drawn)	inconclusive: 28 µM [inhibitor, partial curve]	
CN/N=C/c1ccc(C#N)cc1	inconclusive: 31.6 µM [activator, partial curve]	
COc1cc(/C=N/NC(=O)c2ccoc2C)ccc1O	inconclusive: 25.1 µM [inhibitor, partial curve]	
COc1cccc(-c2csc3nc[nH]c(=O)c23)c1	inactive	
CCN(CC)c1ccc(N)cc1S(=O)(=O)Nc1ccccc1OC	inconclusive: 12.6 µM [inhibitor, partial curve, poor fit]	
CCOC(=O)c1oc2ccc(S(=O)(=O)n3nc(-c4cc(OC)cc(OC)c4)cc3N)cc2c1C	inactive	
COc1ccc(CNCCSc2nnnn2-c2ccccc2)c(OC)c1	inactive	
COc1ccc(Cc2ccc(OC)c(N)c2)cc1N	inconclusive: 22.2 µM [inhibitor, single point]	

Structure (SMILES)	Potency	activity change, negative = inhibition
Cn1c(NNC(=O)/C=C/c2ccc3c(c2)OCO3)cc(=O)n(C)c1=O	inconclusive: 14.1 µM [inhibitor, partial curve]	
Cc1c(CNCCc2ccc(S(N)(=O)=O)cc2)c(C(=O)O)c(C)n1Cc1ccc(Cl)cc1	active: 50.1 µM	
CCOc1ccc(/C=C(\C#N)C(=O)Nc2sc3c(c2C(=O)OC)C(C(=O)OC)CC3)cc1OC (stereo not drawn)	inactive	
N#Cc1c(NC(=O)c2ccc(Br)o2)n(-c2ccccc2)c2nc3ccccc3nc12	inactive	
CC1=NN(c2ccc(Cl)cc2)C(=O)C1C(c1ccccc1O)c1c(C)[nH]n(-c2ccc(Cl)cc2)c1=O (stereo not drawn)	inconclusive: 28.2 µM [inhibitor, single point]	
COc1ccc(N2CCN(C(=O)c3ccccc3NS(=O)(=O)c3ccc(C)cc3)CC2)cc1	inconclusive: 14.1 µM [inhibitor, partial curve]	
Cc1ccc(NNC(=O)c2ccno2)cc1Cl	inconclusive: 15.8 µM [inhibitor, partial curve]	
COc1ccccc1NC(=O)N(Cc1ccco1)Cc1cc2ccc(C)c(C)c2[nH]c1=O	inactive	
O=C(Cn1c(-c2cccs2)cc2ccccc21)NCc1ccccc1Br	inactive	
CCOc1ccc(S(=O)(=O)N/N=C2/CCCC(=O)C2)cc1	inconclusive: 50.1 µM [inhibitor, single point]	
COC(=O)c1sccc1-n1cccc1C(=O)C(=O)Nc1ccc(F)cc1	inactive	
CN1c2ccccc2N(C)C1(C)c1ccccc1	inconclusive: 31.4 µM [activator, partial curve]	
COc1ccc(-c2nc3ccc(C)cn3c2Nc2ccc3c(c2)OCO3)cc1	active: 17.8 µM	
O=C(NCc1cccnc1)NC1(C(F)(F)F)Oc2ccc(Cl)cc2O1 (stereo not drawn)	inconclusive: 7.08 µM [inhibitor, partial curve]	
Cc1cccnc1Nc1nc(-c2ccc(O)cc2)cs1	inconclusive: 17.6 µM [inhibitor, partial curve]	
CN1C(=O)C2C=CC1C1C(=O)N(c3ccccc3)C(=O)C21 (stereo not drawn)		inconclusive: 74.8% [activator]
Oc1ccc(O)c2c1C1c3ccccc3C2c2ccccc21	inconclusive: 50.1 µM [inhibitor, single point]	
O=C(Cn1nnc2ccccc21)NNC(=S)NC1CCCCC1	inconclusive: 15.7 µM [inhibitor, partial curve]	
COc1cc(/C=C2/C(=O)NN(c3ccc(F)cc3)C2=O)cc([N+](=O)[O-])c1O	inconclusive: 22.4 µM [inhibitor, partial curve]	
NC(=S)NNc1cc(Cl)cc(Cl)c1	inconclusive: 17.8 µM [inhibitor, partial curve]	
CNC(=O)c1c(NC(=O)c2ccco2)sc2c1CCCC2	inactive	
O=C(CSc1cccc[n+]1[O-])c1cc2ccccc2o1	inconclusive: 50.1 µM [inhibitor, single point]	
O=C(CC(Nc1ccc(F)cc1)C(=O)O)c1ccccc1 (stereo not drawn)	inconclusive: 31.6 µM [inhibitor, single point]	
